Structures are written as SMILES. Out of some 48,000 compounds screened, about 550 (1.1%) were called active. About 4% were inconclusive and are not listed. No stated cut-off is given here; in the data, active means potency below about 15 µM; inconclusive means mostly about 16 µM to 33 µM; inactive means weaker than that. This is one part of the list.
Potency means the concentration at half of the fitted maximal effect.

Sequence of UniProt P04062 (P04062 whole entry, looked up): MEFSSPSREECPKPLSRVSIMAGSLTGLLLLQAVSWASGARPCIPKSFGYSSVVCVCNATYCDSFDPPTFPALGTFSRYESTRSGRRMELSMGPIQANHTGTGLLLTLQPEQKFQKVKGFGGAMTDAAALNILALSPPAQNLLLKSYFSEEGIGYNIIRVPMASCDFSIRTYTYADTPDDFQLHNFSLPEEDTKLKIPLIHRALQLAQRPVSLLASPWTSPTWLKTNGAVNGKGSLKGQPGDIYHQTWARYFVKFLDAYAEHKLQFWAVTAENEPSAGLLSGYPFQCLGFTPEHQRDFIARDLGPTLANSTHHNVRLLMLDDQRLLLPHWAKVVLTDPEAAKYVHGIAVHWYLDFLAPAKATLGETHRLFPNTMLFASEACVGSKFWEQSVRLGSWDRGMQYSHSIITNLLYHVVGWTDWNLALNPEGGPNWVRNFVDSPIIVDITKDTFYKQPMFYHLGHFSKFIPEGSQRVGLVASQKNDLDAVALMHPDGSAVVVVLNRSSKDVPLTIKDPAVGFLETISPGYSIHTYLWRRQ

The target in this test is Lysosomal acid glucosylceramidase (Homo sapiens) (UniProt P04062). As to the kind of experiment: Glucocerebrosidase.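 Further: the screen sought inhibitors.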 As to conditions: purified enzyme, resorufin glucoside fluorescence (screen aimed at inhibitors), 20 min. Summed up:
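Wild-type enzyme at 0.2 nM final in 50mM citric acid/KH2PO4, 10mM sodium taurocholate, 0.01% tween-20, pH 5.9, with resorufin beta-D-glucopyranoside at 30 uM final. Compounds titrated, 20 min at RT, red fluorescence read; AC50 from titration.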
For `COc1cccc(CNn2c(-c3cccc(C)c3)nc3ccccc3c2=O)c1O`, the Potency was inactive: > 76.9 µM.
Under `O=c1c2c3nc4ccccc4nc3n(-c3ccc4c(c3)OCCO4)c2ncn1C1CCCC1` stands “inactive”; under `Cc1csc(NC(=O)CSc2nc3sc(C)c(C)c3c(=O)[nH]2)n1`, inactive: > 76.9 µM.
Under `CCOC(=O)Cn1c(=O)c2c(nc3n2CCN3c2ccc(C)cc2)n(C)c1=O` stands inactive: > 76.9 µM; under `COC(=O)c1ccc(NC(=O)C(C)N2C(=O)c3ccccc3C2=O)cc1` (configuration not stated), inactive: > 76.9 µM; under `CCOc1ccc(C2C=C(c3ccc(C)cc3)Nc3ncnn32)cc1` (configuration not stated), inactive: > 76.9 µM.
Under `Nc1nc2c(s1)C(=O)CCC2` stands inactive: > 76.9 µM.
Regarding `COc1cccc(-c2nc(CS(=O)(=O)CC(=O)NCCCOC(C)C)c(C)o2)c1`, the Potency is inactive: > 76.9 µM.
`CCC12CCCN3CCC4(C(=C(C(=O)OC)C1)Nc1ccccc14)C32` (configuration not stated): the Potency is inactive: > 76.9 µM.
As to `COC(=O)Cc1c(C)c2ccc(OCC(=O)NCc3ccc4c(c3)OCO4)cc2oc1=O`, the Potency is inactive: > 76.9 µM.
Under `CCCn1c(NC(=O)c2ccccc2)nc2ccccc21` stands inactive: > 76.9 µM; under `C=CCn1c(=O)c2ccccc2n2c(SCC(=O)NCc3cccs3)nnc12`, inactive: > 76.9 µM.
`CCOc1cc(NS(=O)(=O)CC)c(OCC)cc1NC(=O)c1ccco1`: the Potency was inactive: > 76.9 µM.
Under `O=C(CNC(=O)c1ccco1)OCN1C(=O)c2ccccc2C1=O` stands inactive: > 76.9 µM.
Under `COc1ccc(N2C(=O)CC(Sc3nc(C)c4c(n3)CCCC4)C2=O)cc1` (configuration not stated) stands inactive: > 76.9 µM; under `Cc1ccc(Cc2nc(-c3cccc(C)c3)no2)cc1`, inactive: > 76.9 µM.
Under `C=CCn1c(SCC(=O)NC2CCCCC2)nnc1C(C)NC(=O)c1cccs1` (configuration not stated) stands inactive: > 76.9 µM; under `CCOC(=O)N1CCC(NC(=O)c2sc3nc4n(c(=O)c3c2C)CCCC4)CC1`, inactive: > 76.9 µM; under `Cn1c(N)c(C(=O)COC(=O)c2cccs2)c(=O)n(C)c1=O`, inactive: > 76.9 µM.
With `O=C(COC(=O)Cc1cn2ccsc2n1)NCc1ccc2c(c1)OCO2`, the Potency is inactive: > 76.9 µM.
For `O=C(Oc1cccc2cccnc12)c1cccc(-n2cnnn2)c1`, the Potency is inactive: > 76.9 µM.
For the compound `CCOC(=O)C1=C(N)Oc2cc(C)n(CCc3ccc(OC)c(OC)c3)c(=O)c2C1c1cccnc1` (configuration not stated), the Potency was inactive: > 76.9 µM.
As to `O=C(NC1CCCC1)C(NS(=O)(=O)c1cccc2nsnc12)c1ccccc1` (configuration not stated), the Potency was inactive: > 76.9 µM.
Under `N=c1c2c(n(Cc3ccccc3)c3c1CCC3)CCC2` stands inactive: > 76.9 µM; under `COc1cc2nc(C3CC3)n(NC(=O)c3ccc(Cl)cc3)c(=O)c2cc1OC`, inactive: > 76.9 µM.
Turning to `CN1CCN(C(=O)c2ccc3c(=O)n(CCc4ccccc4)c(=S)[nH]c3c2)CC1`, the Potency is inactive: > 76.9 µM.
In the case of `CCOC(=O)Cn1nc(C)c(-c2ccccc2)c1N`, the Potency was inactive: > 76.9 µM.
On to `CN1CCN(C(=O)C2(NC(=O)Nc3cccc(F)c3)CCCCC2)CC1`, for which the Potency was inactive: > 76.9 µM.
Under `c1ccc(Nc2nc(-c3cccnc3)cs2)nc1` stands inactive: > 76.9 µM.
For `COCCNC(=O)CN(Cc1ccc2c(c1)OCO2)C(=O)CCC(=O)Nc1nccs1`, the Potency was inactive: > 76.9 µM.
Under `CC(C)c1nc(N2CCCC2)c(C#N)c2c1CCCC2` stands inactive: > 76.9 µM.
Under `Cc1ccc(S(=O)(=O)Nc2ccc3ncccc3c2)cc1` stands “inactive”; under `CCOc1ccc(CCNC(=O)C2CC(=O)N(C3CCCC3)C2)cc1OCC` (configuration not stated), inactive: > 76.9 µM.
Under `Cc1cccc(CN2CCN(C(=O)c3ccccc3F)CC2)c1` stands inactive: > 76.9 µM; under `COc1cc(C(=O)Nc2ccc(NC(=O)c3ccco3)nc2)cc(OC)c1OC`, inactive: > 76.9 µM; under `CCOC(=O)N1CCC(NC(=O)CCCN2C(=O)CSc3ncccc32)CC1`, inactive: > 76.9 µM.
For the compound `Cc1c(C(=O)N2CCOCC2)oc2ccc(S(=O)(=O)N3CCCC3)cc12`, the Potency is inactive: > 76.9 µM.
Under `O=C(CSc1ccccc1C(=O)O)NCc1ccco1` stands inactive: > 76.9 µM; under `COc1ccc(-c2noc(CN(C(=O)c3ccc(OC(C)=O)cc3)C(C)C)n2)cc1OC`, inactive: > 76.9 µM; under `Cn1ncc2c1ncn1nc(CCc3ccccc3)nc21`, inactive: > 76.9 µM.
Take `COc1cc(OC)cc(-c2nc3nc(C)c(CCC(=O)NCc4ccco4)c(C)n3n2)c1`: the Potency is inactive: > 76.9 µM.
Under `O=C(NCCOCC(F)(F)C(F)F)c1cc(F)c(F)cc1Cl` stands inactive: > 76.9 µM; under `COc1ccccc1Cn1c(-c2ccco2)nc2nc3ccccc3nc21`, inactive: > 76.9 µM; under `CCN1CCc2c(sc(N)c2C#N)C1`, inactive: > 76.9 µM.
For `O=C1CC(c2ccco2)Cc2nc(Nc3nc(-c4ccccc4)c4ccccc4n3)ncc21` (configuration not stated), the Potency was inactive: > 76.9 µM.
Under `c1ccc(CNCCN2CCNCC2)nc1` stands inactive: > 76.9 µM; under `O=C(Nc1nnc(SCc2ccccc2)s1)c1cccs1`, “inactive”; under `O=C(c1ccc(Br)o1)N1CCN(C/C=C/c2ccccc2)CC1`, inactive: > 76.9 µM.
Under `COc1ccc(OC)c(NC(=O)N[C@@H](Cc2ccccc2)C(=O)O)c1` stands inactive: > 76.9 µM.
Under `c1csc(-c2nn[nH]n2)c1` stands inactive: > 76.9 µM; under `COc1ccc(C(=O)N[C@H]2COC(C)(C)O[C@H]2c2ccccc2)cc1`, inactive: > 76.9 µM.
Take `COc1ccc(N2CCN(CCNC(=O)c3nnc(Cc4c(F)cccc4Cl)o3)CC2)cc1`: the Potency is inactive: > 76.9 µM.
Under `Cc1nnc(NC(=O)C2C3C=CC(O3)C2C(=O)O)s1` (configuration not stated) stands inactive: > 76.9 µM.
For the compound `O=C(Nc1ccccc1C(=O)OC1CCOC1=O)c1ccco1` (configuration not stated), the Potency was inactive: > 76.9 µM.
Under `CCCOC(=O)C1=C(C)NC2=C(C(=O)CCC2)C1c1cc(OC)ccc1OC` (configuration not stated) stands inactive: > 76.9 µM.
In the case of `CCOC(=O)c1ccc(NC(=O)NC2CC3CCC(C2)N3Cc2nnnn2C(C)(C)C)cc1` (configuration not stated), the Potency was inactive: > 76.9 µM.
Under `C/C(N)=C(/C#N)C(=O)CSc1ncnc2ccccc12` stands inactive: > 76.9 µM.
For `O=C(Nc1ccc2c(c1)OCCO2)C1CCCN1S(=O)(=O)c1ccc(Cl)cc1` (configuration not stated), the Potency is inactive: > 76.9 µM.
Turning to `COc1ccc(C)cc1S(=O)(=O)N1CCC(C)CC1`, the Potency was inactive: > 76.9 µM.
`CCOc1ccccc1OCC(=O)Nc1ccc(S(=O)(=O)Nc2nc(C)cc(C)n2)cc1`: the Potency is inactive: > 76.9 µM.
Turning to `CCc1ccc(N2CC(C(=O)OCC(=O)Nc3cc(C)on3)CC2=O)cc1` (configuration not stated), the Potency was inactive: > 76.9 µM.
Under `CCOc1ccc2[nH]c(=O)c(CN(Cc3ccco3)C(=O)c3ccc(Br)cc3)cc2c1` stands “inactive”; under `c1coc(CNc2nc3ccccc3n2CCN2CCOCC2)c1`, inactive: > 76.9 µM.
Under `CCCCCC(=O)Nc1ccccc1N1CCN(c2ccccc2)CC1` stands inactive: > 76.9 µM; under `CC(=O)Nc1ccc(Cc2ccncc2)cc1`, inactive: > 76.9 µM.
With `CC1=C2C(CCS2(=O)=O)CC2(C1)C(=O)OC(C)(C)OC2=O` (configuration not stated), the Potency was inactive: > 76.9 µM.
Turning to `O=C(Nc1ccccc1)C1CC2CCCC(C1)C2=O` (configuration not stated), the Potency is inactive: > 76.9 µM.
For `O=C(CSc1nnc(-c2ccc(O)cc2)o1)N1CCOCC1`, the Potency was inactive: > 76.9 µM.
Under `Cc1nn2c3cc(N4CCOCC4)ccc3nc2c2ccccc12` stands inactive: > 76.9 µM.
Regarding `Nn1c(SCC(=O)Nc2ccc3c(c2)OCO3)nnc1-c1ccncc1`, the Potency was inactive: > 76.9 µM.
For `COc1cccc(C2=CC(c3cc(OC)ccc3OC)n3nnnc3N2)c1` (configuration not stated), the Potency is inactive: > 76.9 µM.
Under `Cc1ccc(S(=O)(=O)c2nc(C)oc2NCc2ccccc2)cc1` stands inactive: > 76.9 µM.
Under `CCOc1ccc(NC(=O)CSc2nnc(-c3ccncc3)n2CC2CCCO2)cc1` (configuration not stated) stands inactive: > 76.9 µM; under `C=C(C)c1ccc(C(C)(C)NC(=O)NCc2ccco2)cc1`, inactive: > 76.9 µM; under `CC1CCCCN1C(=O)CSc1ccc(-c2ccc(F)cc2)nn1` (configuration not stated), inactive: > 76.9 µM.
As to `CCOc1ccc(CN2CCN(C(=O)c3ccccc3)CC2)cc1`, the Potency was inactive: > 76.9 µM.
For `Cc1n[nH]c(C)c1S(=O)(=O)N1CCN(C(=O)c2ccco2)CC1`, the Potency is inactive: > 76.9 µM.
Consider `O=C(Cn1cnc2c(oc3ccccc32)c1=O)NCC1CCCO1` (configuration not stated), for which the Potency is inactive: > 76.9 µM.
As to `Cc1ccc(C(=O)C(C)OC(=O)C2CC(=O)N(C3CCCCC3)C2)cc1` (configuration not stated), the Potency was inactive: > 76.9 µM.
As for `Oc1ccc2cccnc2c1`, the Potency was inactive: > 76.9 µM.
Under `CCc1cccc(NC(=O)Cn2cccc2)c1` stands inactive: > 76.9 µM.
As to `COc1cc(O)c2c(c1)OC(C)(C)CC2=O`, the Potency is inactive: > 76.9 µM.
Under `O=C(CSc1nnc(Cn2cnc3ccccc32)o1)c1ccccc1` stands inactive: > 76.9 µM.
Under `O=C(Cc1ccc(Br)cc1)N1CCN(c2ccccc2)CC1` stands inactive: > 76.9 µM.
Take `CCOC(=O)C1CCN(C(=O)COc2ccc(N(C)S(=O)(=O)c3cccs3)cc2)CC1`: the Potency is inactive: > 76.9 µM.
As for `CCOc1ccc(OCC)c(NC(=O)C2CCN(S(=O)(=O)c3cnc[nH]3)CC2)c1`, the Potency is inactive: > 76.9 µM.
Under `CN1CCn2c1nc(N1CCCCC1)nc2=O` stands inactive: > 76.9 µM; under `O=C(OCc1nnc(-c2ccc(Cl)cc2)o1)c1ccncc1`, inactive: > 76.9 µM.
On to `CC(C)(C)n1ncc2c(=O)n(CC(=O)Nc3ccc4c(c3)OCO4)cnc21`, for which the Potency is inactive: > 76.9 µM.
For the compound `O=C(O)c1cccc(S(=O)(=O)N2Cc3ccccc3C2)c1`, the Potency was inactive: > 76.9 µM.
Take `CN(C1CCCCC1)S(=O)(=O)c1ccc(Cl)c(C(=O)O)c1`: the Potency is inactive: > 76.9 µM.
Under `CC(=O)Nc1ccc(S(=O)(=O)Nc2nnc(C3CCCCC3)s2)cc1` stands inactive: > 76.9 µM.

The values are drawn from PubChem BioAssay AID360 (National Center for Advancing Translational Sciences (NCATS), 2006).
